{"source": "the supplement of paper PMC8728848", "binders": {"B1": {"name": "ClecSol-Fc (Cryptosporidium parvum) (protein)", "chain": "CPEGWISNGEKTRCFKLVTFDRPRTFSHGFKACNDLGGTEVETRRRNGSKETNEYPVTLASVYKLSDEEAIRRTLVEQGDIHKTANGCFVGLRKYAFFRYPPGWYWIDSGSPVSVRDSEINWTSSYNASWLLRFKFPFEKCGFFDIGGLGRRPCWLIDSELSCAVCGTVAYDSGGLNPNKYSELIKQTDEIISKEPKLDLPGYNNLNCTDAWENNLSVGLCQNVSNILDSAWSSYQSSLNFPSINFNWKEDSTNEGGDQVYHNSYLDLPRYKQKKTFYWDQDPGTIPALSDEMKLIGLSAQPTYHPLDRSSSGSFESDSTESGRANEERNDTLEEMIYKQSSDSIEDILVPVTKPIFSDYSSIGRNSGVEEVYSSNVSTISSKGVVFPNTTTSSDNDFTKNNPANSSKHTSTSTTTNTTTTTTRTTTTTTTTTTTTTTTTTTTTETTTTKKSTTATKNTTTT"}}, "assay_in_all_cases": "glycan array binding signal (z-score within array); higher = stronger binding", "settings_in_all_cases": "glycan notation: IUPAC condensed, linker removed", "key": {"Fuc(a1-2)Gal": {"biological_target": "Fuc(a1-2)Gal", "in_short": "(§1)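 The binding signal is a Z-score computed within each array. Data were drawn from 3228 arrays in the Consortium for Functional Glycomics database, restricted to those with a known protein sequence. Scores were averaged over arrays of the same protein sequence at different concentrations or buffers, and over linkers, and negative values can be taken as non-binding.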"}, "Fuc(a1-2)Gal(b1-3)GalNAc": {"biological_target": "Fuc(a1-2)Gal(b1-3)GalNAc", "in_short": "as §1"}, "[1]": {"biological_target": "Fuc(a1-2)Gal(b1-3)GalNAc(a1-3)[Fuc(a1-2)]Gal(b1-4)Glc", "in_short": "as §1"}, "[2]": {"biological_target": "Fuc(a1-2)Gal(b1-3)GalNAc(a1-3)[Fuc(a1-2)]Gal(b1-4)GlcNAc", "in_short": "as §1"}, "[3]": {"biological_target": "Fuc(a1-2)Gal(b1-3)GalNAc(b1-3)Gal", "in_short": "as §1"}, "[4]": {"biological_target": "Fuc(a1-2)Gal(b1-3)GalNAc(b1-3)Gal(a1-4)Gal(b1-4)Glc", "in_short": "as §1"}, "[5]": {"biological_target": "Fuc(a1-2)Gal(b1-3)GalNAc(b1-4)[Neu5Ac(a2-3)]Gal(b1-4)Glc", "in_short": "as §1"}, "Fuc(a1-2)Gal(b1-3)GlcNAc": {"biological_target": "Fuc(a1-2)Gal(b1-3)GlcNAc", "in_short": "as §1"}, "[6]": {"biological_target": "Fuc(a1-2)Gal(b1-3)GlcNAc(b1-2)Man(a1-3)[Fuc(a1-2)Gal(b1-3)GlcNAc(b1-2)Man(a1-6)]Man(b1-4)GlcNAc(b1-4)GlcNAc", "in_short": "as §1"}, "[7]": {"biological_target": "Fuc(a1-2)Gal(b1-3)GlcNAc(b1-2)Man(a1-3)[Fuc(a1-2)Gal(b1-3)GlcNAc(b1-2)Man(a1-6)]Man(b1-4)GlcNAc(b1-4)[Fuc(a1-6)]GlcNAc", "in_short": "as §1"}, "[8]": {"biological_target": "Fuc(a1-2)Gal(b1-3)GlcNAc(b1-3)Gal(b1-4)Glc", "in_short": "as §1"}, "[9]": {"biological_target": "Fuc(a1-2)Gal(b1-3)GlcNAc(b1-3)GalNAc", "in_short": "as §1"}, "[10]": {"biological_target": "Fuc(a1-2)Gal(b1-3)GlcNAc(b1-3)[Fuc(a1-2)Gal(b1-3)GlcNAc(b1-6)]GalNAc", "in_short": "as §1"}, "[11]": {"biological_target": "Fuc(a1-2)Gal(b1-3)GlcNAc(b1-3)[Gal(b1-4)GlcNAc(b1-6)]Gal(b1-4)Glc", "in_short": "as §1"}, "[12]": {"biological_target": "Fuc(a1-2)Gal(b1-3)GlcNAc(b1-3)[Neu5Ac(a2-6)Gal(b1-4)GlcNAc(b1-6)]Gal(b1-4)Glc", "in_short": "as §1"}, "[13]": {"biological_target": "Fuc(a1-2)Gal(b1-3)GlcNAc6S", "in_short": "as §1"}, "[14]": {"biological_target": "Fuc(a1-2)Gal(b1-3)[Fuc(a1-4)]GlcNAc", "in_short": "as §1"}, "[15]": {"biological_target": "Fuc(a1-2)Gal(b1-3)[Fuc(a1-4)]GlcNAc(b1-2)Man(a1-3)[Fuc(a1-2)Gal(b1-3)[Fuc(a1-4)]GlcNAc(b1-2)Man(a1-3)]Man(b1-4)GlcNAc(b1-4)GlcNAc", "in_short": "as §1"}, "[16]": {"biological_target": "Fuc(a1-2)Gal(b1-3)[Fuc(a1-4)]GlcNAc(b1-2)Man(a1-3)[Fuc(a1-2)Gal(b1-3)[Fuc(a1-4)]GlcNAc(b1-2)Man(a1-6)]Man(b1-4)GlcNAc(b1-4)[Fuc(a1-6)]GlcNAc(b1-4)[Fuc(a1-6)]GlcNAc", "in_short": "as §1"}, "[17]": {"biological_target": "Fuc(a1-2)Gal(b1-3)[Fuc(a1-4)]GlcNAc(b1-3)[Fuc(a1-3)[Gal(b1-4)]GlcNAc(b1-6)]Gal(b1-4)Glc", "in_short": "as §1"}, "[18]": {"biological_target": "Fuc(a1-2)Gal(b1-3)[Fuc(a1-4)]GlcNAc(b1-3)[Gal(b1-4)GlcNAc(b1-6)]Gal(b1-4)Glc", "in_short": "as §1"}, "Fuc(a1-2)Gal(b1-4)Glc": {"biological_target": "Fuc(a1-2)Gal(b1-4)Glc", "in_short": "as §1"}, "Fuc(a1-2)Gal(b1-4)Glc6S": {"biological_target": "Fuc(a1-2)Gal(b1-4)Glc6S", "in_short": "as §1"}, "Fuc(a1-2)Gal(b1-4)GlcNAc": {"biological_target": "Fuc(a1-2)Gal(b1-4)GlcNAc", "in_short": "as §1"}, "[19]": {"biological_target": "Fuc(a1-2)Gal(b1-4)GlcNAc(b1-2)Man", "in_short": "as §1"}, "[20]": {"biological_target": "Fuc(a1-2)Gal(b1-4)GlcNAc(b1-2)Man(a1-3)[Fuc(a1-2)Gal(b1-4)GlcNAc(b1-2)Man(a1-6)]Man(b1-4)GlcNAc(b1-4)GlcNAc", "in_short": "as §1"}, "[21]": {"biological_target": "Fuc(a1-2)Gal(b1-4)GlcNAc(b1-2)Man(a1-3)[Fuc(a1-2)Gal(b1-4)GlcNAc(b1-2)Man(a1-6)]Man(b1-4)GlcNAc(b1-4)[Fuc(a1-6)]GlcNAc", "in_short": "as §1"}, "[22]": {"biological_target": "Fuc(a1-2)Gal(b1-4)GlcNAc(b1-2)[Fuc(a1-2)Gal(b1-4)GlcNAc(b1-4)]Man(a1-3)[Fuc(a1-2)Gal(b1-4)GlcNAc(b1-2)Man(a1-6)]Man(b1-4)GlcNAc(b1-4)GlcNAc", "in_short": "as §1"}, "[23]": {"biological_target": "Fuc(a1-2)Gal(b1-4)GlcNAc(b1-3)Gal(b1-4)GlcNAc", "in_short": "as §1"}, "[24]": {"biological_target": "Fuc(a1-2)Gal(b1-4)GlcNAc(b1-3)Gal(b1-4)GlcNAc(b1-2)Man(a1-3)[Fuc(a1-2)Gal(b1-4)GlcNAc(b1-3)Gal(b1-4)GlcNAc(b1-2)Man(a1-6)]Man(b1-4)GlcNAc(b1-4)GlcNAc", "in_short": "as §1"}}, "note": "The list shows a part of the results.", "data": [{"binder": "B1", "values": [{"measurement": "glycan array binding signal (z-score)", "setting": "Fuc(a1-2)Gal", "value": -0.23}, {"measurement": "glycan array binding signal (z-score)", "setting": "Fuc(a1-2)Gal(b1-3)GalNAc", "value": -0.212}, {"measurement": "glycan array binding signal (z-score)", "setting": "[1]", "value": -0.07}, {"measurement": "glycan array binding signal (z-score)", "setting": "[2]", "value": 0.031}, {"measurement": "glycan array binding signal (z-score)", "setting": "[3]", "value": -0.223}, {"measurement": "glycan array binding signal (z-score)", "setting": "[4]", "value": -0.029}, {"measurement": "glycan array binding signal (z-score)", "setting": "[5]", "value": -0.167}, {"measurement": "glycan array binding signal (z-score)", "setting": "Fuc(a1-2)Gal(b1-3)GlcNAc", "value": -0.193}, {"measurement": "glycan array binding signal (z-score)", "setting": "[6]", "value": 0.169}, {"measurement": "glycan array binding signal (z-score)", "setting": "[7]", "value": 0.078}, {"measurement": "glycan array binding signal (z-score)", "setting": "[8]", "value": -0.209}, {"measurement": "glycan array binding signal (z-score)", "setting": "[9]", "value": 0.073}, {"measurement": "glycan array binding signal (z-score)", "setting": "[10]", "value": -0.169}, {"measurement": "glycan array binding signal (z-score)", "setting": "[11]", "value": 0.047}, {"measurement": "glycan array binding signal (z-score)", "setting": "[12]", "value": -0.161}, {"measurement": "glycan array binding signal (z-score)", "setting": "[13]", "value": -0.129}, {"measurement": "glycan array binding signal (z-score)", "setting": "[14]", "value": -0.087}, {"measurement": "glycan array binding signal (z-score)", "setting": "[15]", "value": -0.179}, {"measurement": "glycan array binding signal (z-score)", "setting": "[16]", "value": -0.14}, {"measurement": "glycan array binding signal (z-score)", "setting": "[17]", "value": -0.228}, {"measurement": "glycan array binding signal (z-score)", "setting": "[18]", "value": -0.122}, {"measurement": "glycan array binding signal (z-score)", "setting": "Fuc(a1-2)Gal(b1-4)Glc", "value": -0.174}, {"measurement": "glycan array binding signal (z-score)", "setting": "Fuc(a1-2)Gal(b1-4)Glc6S", "value": 0.153}, {"measurement": "glycan array binding signal (z-score)", "setting": "Fuc(a1-2)Gal(b1-4)GlcNAc", "value": -0.125}, {"measurement": "glycan array binding signal (z-score)", "setting": "[19]", "value": -0.1}, {"measurement": "glycan array binding signal (z-score)", "setting": "[20]", "value": -0.039}, {"measurement": "glycan array binding signal (z-score)", "setting": "[21]", "value": -0.087}, {"measurement": "glycan array binding signal (z-score)", "setting": "[22]", "value": -0.195}, {"measurement": "glycan array binding signal (z-score)", "setting": "[23]", "value": -0.091}, {"measurement": "glycan array binding signal (z-score)", "setting": "[24]", "value": -0.154}]}]}
